This note sets out measurements from PubChem BioAssay AID1240 (Sanford-Burnham Center for Chemical Genomics, 2008).

Hit rate of the full screen: of about 50,000 compounds, about 800 (1.6%) showed an effect of 50% or more. The list shows a part of the results.

The assay addresses Bcl-2-like protein 10 (Homo sapiens) (UniProt Q9HD36). The assay is described as follows: TR3 peptide-Bcl-B binding displacers, biochemical primary FP assay, phenotype converters (AID 1240).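 Note: 0% = Bcl-B with tracer peptide and DMSO and 100% = tracer peptide lacking Bcl-B.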 The conditions noted are these: GST-Bcl-B / FITC-TR3 peptide fluorescence polarization; stronger effect = higher value; compound at 3.75 mg/L. On the technique in general: In fluorescence polarisation assays a small probe gives low polarisation when free and higher when bound to something large.
Sequence of UniProt Q9HD36 (Q9HD36 whole entry, looked up): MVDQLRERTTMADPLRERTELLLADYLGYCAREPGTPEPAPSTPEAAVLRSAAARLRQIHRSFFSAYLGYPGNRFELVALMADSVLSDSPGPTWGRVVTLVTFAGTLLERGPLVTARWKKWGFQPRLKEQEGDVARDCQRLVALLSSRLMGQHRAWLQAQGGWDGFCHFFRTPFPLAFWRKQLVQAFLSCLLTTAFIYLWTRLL
In the case of `CCN(C(=O)c1ccc(OC)cc1)c1ccccc1`, the displacement is 0.8%.
With `O=C(/C=C/c1ccccc1)NNc1ccc([N+](=O)[O-])cc1` the figure was -15.2%.
As to `O=C1NC(=S)NC(=O)C1=Cc1cccc(Cl)c1Cl`, the displacement was 10.6%.
Consider `CCc1cc2c(NCCc3ccc(OC)c(OC)c3)ncnc2s1`, for which the displacement is -0.9%.
Take `CCCC(C)NC(=O)c1ccc(-c2ccccc2)cc1` (centres undefined): the displacement was -1.9%.
With `O=C(Nc1ccc(I)cc1Cl)c1cccc(Cl)c1Cl` the figure was 11.2%; with `COC(=O)c1c(N)sc(C)c1-c1ccc(Cl)cc1`, -1.3%.
Take `CC1=C(C(=O)Nc2ccc(Br)cc2)C(c2ccccc2)NC(=S)N1` (centres undefined): the displacement stood at 9.4%.
Take `CC1(C)C(c2cccs2)=[N+]([O-])C2(CCCCC/C2=N\O)N1O` (centres undefined): the displacement amounted to 8.9%.
Regarding `O=C(NC(=S)N1CCN(CCN2C(=O)c3cccc4cccc(c34)C2=O)CC1)c1ccc2c(c1)OCO2`, the displacement was -10.4%.
For the compound `CCOc1ccc(C2/C(=C(\O)c3ccc(F)cc3)C(=O)C(=O)N2CCCCCC(=O)O)cc1` (centres undefined), the displacement is -9.7%.
With `COc1ccccc1/C=C1\SC(=S)N(CCC(=O)O)C1=O` the figure was -4.9%.
With `Cc1onc(-c2c(Cl)cccc2Cl)c1C(=O)NCc1ccc(S(N)(=O)=O)cc1`, the displacement worked out at 7.1%.
In the case of `COc1ccc(C2C(C(C)=O)=C(O)C(=O)N2c2nc3ccccc3s2)c(OC)c1` (centres undefined), the displacement stood at 9.5%.
As to `CCOC(=O)C1=NNC(C(=O)c2ccccc2)C1c1cccc(Br)c1` (centres undefined), the displacement was -9.5%.
For the compound `COC(=O)COc1ccc2c(=O)c(Oc3ccccc3Br)c(C(F)(F)F)oc2c1`, the displacement is 1.9%.
On to `COc1ccc(S(=O)(=O)N2CCN(C(=O)c3cccc(F)c3)CC2)cc1`, for which the displacement was found to be 7%.
As to `Cn1cnc2cc(Nc3nnc(-c4ccccc4)c4ccccc34)ccc21`, the displacement turned out to be 3.5%.
Regarding `COc1ccccc1C1/C(=C(/O)c2ccccc2)C(=O)C(=O)N1c1cccc([N+](=O)[O-])c1` (centres undefined), the displacement came out at 6.1%.
As for `CCC(=Nc1ccccc1C)C1=C(O)CC(C)(C)CC1=O`, the displacement stood at 14%.
Turning to `COc1ccc(-c2cc(C(F)(F)F)n3nc(C(=O)N4CCCCC4)c(Br)c3n2)cc1`, the displacement is -2.1%.
For `Cc1ncc(C23CC4CC(CC(C4)C2)C3)[nH]1`, the displacement is -7.8%.
With `O=C1NC(=Nc2cccc(Cl)c2Cl)S/C1=C\c1ccc(F)cc1` the figure was -4.9%.
With `O=C(CN1CCOCC1)Nc1nc2ccccc2s1` the figure was -8%; with `O=C1Nc2c(S(=O)(=O)Nc3ccc(Cl)cc3)cc(S(=O)(=O)Nc3ccc(Cl)cc3)c3cccc1c23`, 6.3%; with `CC(C(=O)N1CCN(c2ccccc2)CC1)N1C(=O)c2ccccc2C1=O` (centres undefined), -3%.
As to `CCOC(=O)c1ccc2c(c1)C1C=CCC1C(c1cccc3ccccc13)N2` (centres undefined), the displacement was found to be 4.6%.
With `Cc1ccc(C)c(NC(=O)c2cc3ccccc3oc2=O)c1` the figure was 13.7%; with `COc1ccc(OC)c(NC(=O)C(C)Oc2ccc(Cl)cc2Cl)c1` (centres undefined), -5.6%.
As to `CCC(=O)Nc1ccc2oc(-c3ccc4ccccc4c3)nc2c1`, the displacement was determined as 30.8%.
As to `O=c1oc(-c2cccs2)nc2sc3c(c12)CCCC3`, the displacement worked out at 9.8%.
Turning to `COc1cc(C2/C(=C(\O)c3ccc(F)cc3)C(=O)C(=O)N2c2nncs2)ccc1O` (centres undefined), the displacement was 8.3%.
On to `O=Cc1cn(CCOc2ccccc2F)c2ccccc12`, for which the displacement was -15.9%.
In the case of `O=C(/C=C/Nc1ccc(O)cc1)c1ccc(Br)cc1`, the displacement turned out to be 11.6%.
With `CC1(C)CC(=O)C2=C(C1)N=C1c3ccccc3C(=O)C1C2c1ccc(Br)cc1` (centres undefined), the displacement was found to be 6.5%.
With `O=C1NC(=S)N(c2ccccc2)C(=O)/C1=C/c1ccc(-c2ccc([N+](=O)[O-])cc2)o1`, the displacement is -1.5%.
Regarding `CNc1nc(Nc2nc(C)cc(C)n2)nc(OCC(F)(F)F)n1`, the displacement came to 7.2%.
For `CCOC(=O)c1cccc(Nc2ncnc3ccc(C)cc23)c1`, the displacement was 9.2%.
With `Cc1ccc(NC(=O)c2cccc(Cl)c2)cc1Cl` the figure was 3.2%; with `CC(=O)CC(=O)NC1C2CC3CC(C2)CC1C3` (centres undefined), 2%.
Regarding `CC(/C=N/N1C(=O)CSC1=S)=C\c1ccccc1`, the displacement is -21.3%.
Consider `COCCOC(=O)C1=C(C)NC2=C(C(=O)CC(C)(C)C2)C1c1ccc(Br)cc1` (centres undefined), for which the displacement turned out to be 11.9%.
Consider `NC(=O)C1CCN(C(=O)c2cnn(-c3ccccc3)c2NC(=O)c2cccc(F)c2)CC1`, for which the displacement came out at 5.1%.
Regarding `Cc1c(Cl)cccc1NC1C=CS(=O)(=O)C1` (centres undefined), the displacement worked out at 14%.
On to `Cc1cc2nc(-c3cccc(NC(=O)c4ccc(C)c([N+](=O)[O-])c4)c3)oc2cc1C`, for which the displacement worked out at 5.6%.
With `CCOC(=O)C1=C(c2ccccc2)N=C2SCC(=O)N2C1c1ccc(OC)cc1` (centres undefined) the figure was 9.2%; with `COCCCNC(=O)c1ccc(OC)cc1`, -11%; with `CCN(CC)c1ccc(C=Nc2ccc(S(N)(=O)=O)cc2)c(O)c1`, 1.4%.
Regarding `CC(=O)C1=C(O)C(=O)N(CC2CCCO2)C1c1ccc(Cl)cc1Cl` (centres undefined), the displacement is 19.4%.
In the case of `Cc1ccc(OCCOc2ccccc2C=O)cc1`, the displacement is -1.8%.
Regarding `COc1ccc(NC(=O)c2ccc(-n3cnnn3)cc2)cc1`, the displacement was -21.6%.
For the compound `O=C1c2ccccc2NC(c2cccc(O)c2)N1Cc1ccco1` (centres undefined), the displacement was determined as 8.5%.
With `Cn1ccnc1Sc1ccc([N+](=O)[O-])cc1`, the displacement was -10.9%.
Take `COc1ccc(Cl)cc1C(=O)Nc1ccc(N2CCCCC2)c(Cl)c1`: the displacement was -0.6%.
With `COc1ccc(C2C(C(=O)OC(C)C)=C(C)N=c3s/c(=C\c4ccc5c(c4)OCO5)c(=O)n32)cc1` (centres undefined) the figure was 33.9%; with `CN1c2ccccc2-c2ccccc2C12C=Cc1cc([N+](=O)[O-])ccc1O2` (centres undefined), -2.8%.
As for `CCOC(=O)c1c(NC(=O)c2cccnc2)sc(C(=O)N(CC)CC)c1C`, the displacement turned out to be 4.1%.
For the compound `COc1cccc(/C=C2/SC(=S)N(CC(=O)O)C2=O)c1O`, the displacement was found to be 11%.
As to `Cc1nn(CC(=O)Nc2ccc(Cl)cc2Cl)c(C)c1[N+](=O)[O-]`, the displacement was 10%.
With `COc1nc(Nc2ccc(C(C)=O)cc2)nc(OC)n1` the figure was -3.5%; with `COc1ccc(CCNC(=O)/C=C/c2ccco2)cc1OC`, 6.9%; with `O=c1nc(N2CCOCC2)nc(N2CCOCC2)[nH]1`, 13.1%.
As to `c1ccc(OCCCCn2ccnc2)cc1`, the displacement is -9%.
Turning to `Cc1ccc(OCC(=O)N2CCC(C(N)=O)CC2)c(Br)c1`, the displacement was -11.4%.
In the case of `CC(=C\c1ccccc1)/C=C1/SC(=Nc2ccc(F)cc2)NC1=O`, the displacement is -22.2%.
`Cc1c(C(=O)OC(C)C)sc(NC(=O)C2CC2c2ccccc2)c1C#N` (centres undefined): the displacement is -4.6%.
With `O=C(Nc1cccc2ncccc12)c1sc2ccccc2c1Cl` the figure was 5.4%; with `O=C(CCNc1ccc([N+](=O)[O-])cc1)c1cccs1`, -12.3%; with `COc1ccc(/C=C2\SC(N3CCC(C)CC3)=NC2=O)cc1`, -8.4%.
As for `COc1cc([N+](=O)[O-])ccc1N1C(=O)C2C3C=CC(C4CC34)C2C1=O` (centres undefined), the displacement was found to be 22.4%.
On to `COc1ccc(N(CC(=O)NC(C)c2ccccc2)S(C)(=O)=O)cc1Cl` (centres undefined), for which the displacement was determined as 2.8%.
As for `CCNc1cc(Nc2ccc(C)cc2)c2c3c(onc13)-c1ccccc1C2=O`, the displacement amounted to 14.1%.
With `Cc1ccc(N2C(=O)CC(NCCCN3CCOCC3)C2=O)cc1` (centres undefined) the figure was -1.5%.
With `O=[N+]([O-])c1ccc(-c2nnc(-c3ccc(F)cc3)o2)cc1` the figure was 8.4%; with `COC(=O)c1ccc(/C=C2/C(=O)NN(c3ccccc3)C2=O)cc1`, 1.9%.
Take `CCOC(=O)c1[nH]c(=O)[nH]c1CN1CCc2ccccc2C1`: the displacement is -7.3%.
As for `COc1cc(C(=O)c2cc(Br)ccc2NC(=O)COc2ccc(C)cc2)cc(OC)c1OC`, the displacement is 17.2%.
For the compound `COc1ccccc1N(CC(=O)NCC(C)c1ccccc1)S(=O)(=O)c1ccccc1` (centres undefined), the displacement was -7.1%.
On to `Cc1ccc(C23CC4CC(CC(C(=O)Nc5nn[nH]n5)(C4)C2)C3)cc1`, for which the displacement turned out to be 2.1%.
As for `Cc1cc([N+](=O)[O-])c2[nH]c(C(=O)N/N=C/c3ccncc3)c(-c3ccccc3)c2c1`, the displacement was -13.9%.
`O=S(=O)(Nc1ncccc1O)c1ccc(Cl)cc1`: the displacement stood at 1.1%.
On to `CCOc1ccc(NC(=S)NC(NC(=O)OCc2ccccc2)C(Cl)(Cl)Cl)cc1` (centres undefined), for which the displacement was determined as 0.7%.
With `O=C(NC(Nc1ccccc1)C(=O)c1ccccc1)c1ccco1` (centres undefined) the figure was -1.7%; with `O=[N+]([O-])c1ccc(N2CCN(S(=O)(=O)c3ccccc3)CC2)c(C(F)(F)F)c1`, 0.7%; with `CCC(Oc1ccccc1)C(=O)Nc1cc(Cl)ccc1C` (centres undefined), -0.1%.
`COc1ccc(NC(=O)c2c(NC(=O)Cc3ccccc3)sc3c2CCC(C)C3)cc1` (centres undefined): the displacement is -19.5%.
Regarding `COC(=O)c1ccc(Oc2nc(NC(C)C)nc(NC(C)C)n2)cc1`, the displacement was -0.6%.
As to `O=C(CSc1cccc2cccnc12)Nc1ccc(/C=C/c2ccccc2)cc1`, the displacement came to 11.7%.
For `COc1ccc(/C=C/C(=O)NCCSc2ccccn2)cc1`, the displacement was found to be 8.7%.
Take `CC(C)(C)c1cc(C(=O)N/N=C/c2cc(C(C)(C)C)c(O)c(C(C)(C)C)c2)n[nH]1`: the displacement was -3.4%.
On to `COc1cc(/C=C2/C(=O)N(c3ccccc3)N=C2C)cc([N+](=O)[O-])c1O`, for which the displacement is 19.2%.
On to `Cc1ccc(S(=O)(=O)N(CC(=O)NCC2CCCO2)c2ccc(C(C)C)cc2)cc1` (centres undefined), for which the displacement came out at 1.2%.
Regarding `CC(=O)Oc1cc(C(=O)Nc2ccccc2C(=O)O)cc(C(=O)Nc2ccccc2C(=O)O)c1`, the displacement is 1.8%.
With `O=C(NCC1CCCO1)c1ccc(S(=O)(=O)N2CCOCC2)cc1` (centres undefined) the figure was -7.2%; with `C=CCOC(=O)C1=C(C)NC(=S)NC1c1ccc(OC)cc1` (centres undefined), 9.6%; with `O=C(Cc1cccs1)NCC1CCCO1` (centres undefined), 14.5%.
In the case of `O=S(=O)(c1ccc(Br)cc1)N1CCN(C/C=C/c2ccccc2)CC1`, the displacement is -9.6%.
For the compound `CCc1ccccc1NC(=O)/C=C/c1ccccc1`, the displacement was 13.7%.
As for `O=C(CSc1nnc(-c2ccccc2)c(-c2ccccc2)n1)Nc1nccs1`, the displacement was 4.6%.
With `O=C(O)CCCNC(=O)c1cn(-c2ccccc2)nc1-c1ccccc1` the figure was 16.9%; with `COc1ccccc1C1Nc2ccccc2NC2=C1C(=O)CC(c1ccc(Cl)cc1)C2` (centres undefined), 5.5%.
As to `Cc1ccc(N2C(=O)CC(NCCc3ccc(Cl)cc3)C2=O)cc1Cl` (centres undefined), the displacement is -21.3%.
Consider `COc1cc(/C=N/N2C(=O)c3cccc4cccc(c34)C2=O)ccc1O`, for which the displacement was -2.7%.
With `COc1ccc(/C=N/N2CCN(Cc3ccc(C)cc3)CC2)cc1Br` the figure was 5%.
With `CCOC(=O)c1sc(NC(NC(=O)c2ccco2)C(=O)c2ccccc2)c(C(=O)OCC)c1C` (centres undefined) the figure was 2.1%; with `Cc1c(NC(=O)c2ccco2)cccc1[N+](=O)[O-]`, 21.9%.
Take `O=[N+]([O-])c1ccc(Cl)c2ncccc12`: the displacement was determined as 17.1%.
As to `CCc1nnc(NC(=O)C2CC3CCC2C3)s1` (centres undefined), the displacement is -2.8%.
With `COc1ccc(C(=O)N(CCCCN2C(=O)c3ccccc3C2=O)c2ccc(C)cc2)cc1OC` the figure was 1.9%.
